# The list shows a part of the results.
# B1: PX15618B-bfa-464-25-464 (Bacteroides fragilis) (protein)
# chain: DQEPPLYVNENDIFTSPTRIEATLNGLYAAIKNTGTKSLMGGKSYLVFDNRGDDVINISNNLVTLFNTYNMNVGITDAENADTWTYAYLAINKVNTFLQSLEGAREVAGENYDRYVQEAKFVRALAYYYLNNLYPTPYSVNPDAKSVPLRLTAEAGTENNNMPRSTVKQIYEHILSDLENISALDTEVNTYTGVTHATQAAANMLKMRVYMAMNEWDKAITAGELVTGYSLPEDVTLIYKAPYFSQESIFSLPMADTNIPNTQQSLAEYYYDGKIMLIDTKSGIMSKPDYSLATDKRIIAFKGEKDLLMKFTDAKTKLQWVPIFRYAETLLDLAECYANKAGGEATAKSLLKQVRGRSVDAATDPLNIDNLSGDALKEAIYNEKRLEFIGEGIRGIDIMRRGEHFIKVGENETINVGPSDEKYTWPIPQVELLLNKDINK
# Legend:
# Assay in all cases: glycan array binding signal (z-score within array); higher = stronger binding
# Settings in all cases: glycan notation: IUPAC condensed, linker removed
# [1] = molecular target: Gal3S(b1-4)Glc
# Summary of the method: (§1)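 Glycan array data came from 3228 arrays in the Consortium for Functional Glycomics database, and only arrays with an available protein sequence were kept. Glycan names were put into IUPAC-condensed notation, and columns mapping to the same glycan were averaged. The binding signal is a within-array Z-score, averaged across arrays of one protein sequence run at different concentrations or buffers and across linkers. A negative Z-score can be read as non-binding.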
# [2] = molecular target: Gal3S(b1-4)Glc6S
# Summary of the method: as §1
# [3] = molecular target: Gal3S(b1-4)GlcNAc
# Summary of the method: as §1
# [4] = molecular target: Gal3S(b1-4)[Fuc(a1-3)]Glc6S
# Summary of the method: as §1
# [5] = molecular target: Gal3S(b1-4)[Fuc(a1-3)]GlcNAc
# Summary of the method: as §1
# [6] = molecular target: Gal3S(b1-4)[Fuc(a1-3)]GlcNAc6S
# Summary of the method: as §1
# [7] = molecular target: Gal3S4S(b1-4)GlcNAc
# Summary of the method: as §1
# [8] = molecular target: Gal3S6S(b1-4)GlcNAc
# Summary of the method: as §1
# [9] = molecular target: Gal3S6S(b1-4)GlcNAc6S
# Summary of the method: as §1
# [10] = molecular target: Gal4S(b1-4)GlcNAc
# Summary of the method: as §1
# [11] = molecular target: Gal4S6S(b1-4)GlcNAc
# Summary of the method: as §1
# [12] = molecular target: Gal6P(b1-4)GlcNAc
# Summary of the method: as §1
# [13] = molecular target: Gal6S(b1-3)GlcNAc
# Summary of the method: as §1
# [14] = molecular target: Gal6S(b1-3)GlcNAc6S
# Summary of the method: as §1
# [15] = molecular target: Gal6S(b1-4)Glc
# Summary of the method: as §1
# [16] = molecular target: Gal6S(b1-4)Glc6S
# Summary of the method: as §1
# [17] = molecular target: Gal6S(b1-4)GlcNAc
# Summary of the method: as §1
# [18] = molecular target: Gal6S(b1-4)GlcNAc6S
# Summary of the method: as §1
# [19] = molecular target: GalNAc(a1-3)Gal
# Summary of the method: as §1
# [20] = molecular target: GalNAc(a1-3)GalNAc
# Summary of the method: as §1
# [21] = molecular target: GalNAc(a1-3)GalNAc(b1-3)Gal(a1-4)Gal(b1-4)Glc
# Summary of the method: as §1
# [22] = molecular target: GalNAc(a1-3)GalNAc(b1-3)Gal(a1-4)Gal(b1-4)GlcNAc
# Summary of the method: as §1
# [23] = molecular target: GalNAc(b1-3)Gal
# Summary of the method: as §1
# [24] = molecular target: GalNAc(b1-3)Gal(a1-4)Gal(b1-4)GlcNAc
# Summary of the method: as §1
# [25] = molecular target: GalNAc(b1-3)Gal(a1-4)Gal(b1-4)GlcNAc(b1-3)Gal(b1-4)Glc
# Summary of the method: as §1
# [26] = molecular target: GalNAc(b1-3)Gal(a1-6)Gal(b1-4)Glc
# Summary of the method: as §1
# [27] = molecular target: GalNAc(b1-3)GalNAc
# Summary of the method: as §1
# [28] = molecular target: GalNAc(b1-3)GlcNAc
# Summary of the method: as §1
# [29] = molecular target: GalNAc(b1-4)Gal(b1-4)Glc
# Summary of the method: as §1
# [30] = molecular target: GalNAc(b1-4)GlcNAc
# Summary of the method: as §1
# [31] = molecular target: GalNAc(b1-4)GlcNAc(b1-2)Man
# Summary of the method: as §1
# [32] = molecular target: GalNAc(b1-4)GlcNAc(b1-2)Man(a1-3)[GalNAc(b1-4)GlcNAc(b1-2)Man(a1-6)]Man(b1-4)GlcNAc(b1-4)GlcNAc
# Summary of the method: as §1
# [33] = molecular target: GalNAc(b1-4)GlcNAc(b1-3)GalNAc(b1-4)GlcNAc
# Summary of the method: as §1
# [34] = molecular target: GalNAc(b1-4)GlcNAc6S
# Summary of the method: as §1
# [35] = molecular target: GalNAc(b1-6)GalNAc
# Summary of the method: as §1
# [36] = molecular target: GalNAc3S(b1-4)GlcNAc
# Summary of the method: as §1
# [37] = molecular target: GalNAc3S(b1-4)GlcNAc3S
# Summary of the method: as §1
binder,measurement,setting,value
B1,glycan array binding signal (z-score),[1],0.162
same,glycan array binding signal (z-score),[2],-0.055
same,glycan array binding signal (z-score),[3],-0.305
same,glycan array binding signal (z-score),[4],0.38
same,glycan array binding signal (z-score),[5],0.137
same,glycan array binding signal (z-score),[6],0.421
same,glycan array binding signal (z-score),[7],-0.294
same,glycan array binding signal (z-score),[8],0.078
same,glycan array binding signal (z-score),[9],-0.475
same,glycan array binding signal (z-score),[10],-0.483
same,glycan array binding signal (z-score),[11],-0.852
same,glycan array binding signal (z-score),[12],-0.53
same,glycan array binding signal (z-score),[13],-0.328
same,glycan array binding signal (z-score),[14],-0.297
same,glycan array binding signal (z-score),[15],-0.133
same,glycan array binding signal (z-score),[16],0.521
same,glycan array binding signal (z-score),[17],-0.779
same,glycan array binding signal (z-score),[18],-0.259
same,glycan array binding signal (z-score),[19],-0.083
same,glycan array binding signal (z-score),[20],-0.504
same,glycan array binding signal (z-score),[21],-0.638
same,glycan array binding signal (z-score),[22],-0.273
same,glycan array binding signal (z-score),[23],-0.246
same,glycan array binding signal (z-score),[24],0.922
same,glycan array binding signal (z-score),[25],-0.421
same,glycan array binding signal (z-score),[26],-0.269
same,glycan array binding signal (z-score),[27],0.556
same,glycan array binding signal (z-score),[28],-0.627
same,glycan array binding signal (z-score),[29],-0.411
same,glycan array binding signal (z-score),[30],-0.531
same,glycan array binding signal (z-score),[31],0.379
same,glycan array binding signal (z-score),[32],0.631
same,glycan array binding signal (z-score),[33],-0.232
same,glycan array binding signal (z-score),[34],-0.233
same,glycan array binding signal (z-score),[35],0.227
same,glycan array binding signal (z-score),[36],-0.132
same,glycan array binding signal (z-score),[37],0.172

# — the supplement of paper PMC8728848
